Measured values taken from the supplement of paper PMC4967469.

Key:
Experiment in all cases: Viability of human cancer cell lines after 72 h of drug (GDSC screen)
[1] = compound: Cc1cnc(-c2cnc(NCCNc3ccc(C#N)cn3)nc2-c2ccc(Cl)cc2Cl)[nH]1 [CHIR-99021]
Procedure: (§1)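 Human cancer cell lines in 384-well plates, medium with 10% serum, drug for 72 h over a 256-fold dose range (nine 2-fold or five 4-fold steps up to the top dose). Adherent lines were fixed and stained with the nucleic acid dye Syto60, suspension lines read with resazurin; signal relative to control wells, capped at 0 and 100%. One two-parameter sigmoid per drug and line, fitted in a mixed model over all curves with the slope shared within a line.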

[2] = compound: COc1cc2ncnc(-n3nc(-c4ccccn4)nc3N)c2cc1OC [CP466722]; settings: top dose 16 µM; top dose inferred
Procedure: as §1

[3] = compound: Nc1ccn([C@@H]2O[C@H](CO)[C@@H](O)[C@@H]2O)c(=O)n1 [Cytarabine]; settings: top dose 2 µM
Procedure: as §1

[4] = compound: O=c1cc(-c2cccc3c2Sc2ccccc2S3)oc(N2CCOCC2)c1 [KU-55933]; settings: top dose 10 µM
Procedure: as §1

[5] = compound: CCn1c(-c2nonc2N)nc2cnc(Oc3cccc(NC(=O)c4ccc(OCCN5CCOCC5)cc4)c3)cc21 [GSK269962A]; settings: top dose inferred
Procedure: as §1

[6] = compound: C[C@]1(c2nc3c(C(N)=O)cccc3[nH]2)CCCN1 [ABT-888]; settings: top dose 5 µM; top dose inferred
Procedure: as §1

[7] = compound: Cc1ccc(F)c(NC(=O)Nc2ccc(-c3cccc4[nH]nc(N)c34)cc2)c1 [ABT-869]; settings: top dose 1.024 µM; top dose inferred
Procedure: as §1

[8] = compound: COc1cc(O)c2c(c1)/C=C/C[C@H](O)[C@H](O)C(=O)/C=C\C[C@H](C)OC2=O [(5Z)-7-Oxozeaenol]; settings: top dose 10 µM; top dose inferred
Procedure: as §1

[9] = compound: COc1nc(C)cnc1NS(=O)(=O)c1cccnc1-c1ccc(-c2nnco2)cc1 [Zibotentan]; settings: top dose 20 µM; top dose inferred
Procedure: as §1

[10] = compound: C=CC(=O)Nc1cc(-n2c(=O)ccc3cnc4ccc(-c5cn[nH]c5)cc4c32)ccc1C [QL-X-138]; settings: top dose 10.24 µM; top dose inferred
Procedure: as §1

[11] = compound: COc1cc(N2CCC(O)CC2)ccc1Nc1cc(Nc2ccccc2S(=O)(=O)C(C)C)c2cc[nH]c2n1 [MPS-1-IN-1]; settings: top dose 20 µM; top dose inferred
Procedure: as §1

[12] = compound: C/C=C(/C)C(=O)O[C@H]1C(C)=C2[C@H]([C@@H]1OC(=O)CCCCCCC)[C@@](C)(OC(C)=O)C[C@H](OC(=O)CCC)[C@@]1(O)[C@H]2OC(=O)[C@@]1(C)O [Thapsigargin]; settings: top dose 0.512 µM; top dose inferred
Procedure: as §1

[13] = top dose 2.56 µM, screen: GDSC drug entry 154
[14] = top dose 10 µM, screen: GDSC drug entry 1241, top dose inferred
[15] = top dose 5 µM, screen: GDSC drug entry 1192
[16] = top dose 2.5 µM, screen: GDSC drug entry 127

| Cell Line | AUC [1, 13] | IC50 [1, 13] [µM] | AUC [1, 14] | IC50 [1, 14] [µM] | AUC [2] | IC50 [2] [µM] | AUC [3] | IC50 [3] [µM] | AUC [4] | IC50 [4] [µM] | AUC [5, 15] | IC50 [5, 15] [µM] | AUC [6] | IC50 [6] [µM] | AUC [7] | IC50 [7] [µM] | AUC [8] | IC50 [8] [µM] | AUC [9] | IC50 [9] [µM] | AUC [10] | IC50 [10] [µM] | AUC [11] | IC50 [11] [µM] | AUC [12] | IC50 [12] [µM] | AUC [5, 16] | IC50 [5, 16] [µM] |
| --- | --- | --- | --- | --- | --- | --- | --- | --- | --- | --- | --- | --- | --- | --- | --- | --- | --- | --- | --- | --- | --- | --- | --- | --- | --- | --- | --- | --- |
| PC-3 [JPC-3] (lung adenocarcinoma, adherent) | 0.977 | > 2.56 | 0.959 | > 10 | 0.729 | 5.67 | 0.871 | > 2 | 0.959 | > 10 | 0.921 | > 5 | 0.981 | > 5 | 0.978 | > 1.02 | 0.761 | 4.68 | 0.978 | > 20 | 0.66 | 2.07 | 0.923 | > 20 | 0.585 | 0.0592 | – | – |
| PCI-6A (head and neck, adherent) | 0.988 | > 2.56 | 0.978 | > 10 | 0.896 | > 16 | 0.677 | 0.386 | 0.923 | > 10 | 0.986 | > 5 | 0.956 | > 5 | 0.982 | > 1.02 | 0.965 | > 10 | 0.983 | > 20 | 0.663 | 1.8 | 0.881 | > 20 | 0.194 | 0.00404 | – | – |
| PCI-15A (head and neck, adherent) | 0.986 | > 2.56 | 0.956 | > 10 | 0.851 | 12.4 | 0.987 | > 2 | 0.717 | 2.58 | 0.963 | > 5 | 0.875 | 4.97 | 0.982 | > 1.02 | 0.787 | 4.39 | 0.976 | > 20 | 0.836 | 6.85 | 0.986 | > 20 | 0.397 | 0.0167 | – | – |
| PCI-30 (head and neck, adherent) | 0.968 | > 2.56 | 0.927 | > 10 | 0.965 | > 16 | 0.781 | 1.03 | 0.967 | > 10 | 0.887 | > 5 | 0.927 | > 5 | 0.974 | > 1.02 | 0.741 | 3.65 | 0.979 | > 20 | 0.901 | > 10.2 | 0.96 | > 20 | 0.891 | > 0.512 | – | – |
| PE/CA-PJ15 (head and neck, adherent) | 0.986 | > 2.56 | 0.958 | > 10 | 0.959 | > 16 | 0.85 | 1.71 | 0.918 | > 10 | 0.945 | > 5 | 0.941 | > 5 | 0.982 | > 1.02 | 0.66 | 1.81 | 0.985 | > 20 | 0.898 | > 10.2 | 0.948 | > 20 | 0.979 | > 0.512 | – | – |
| PL4 (pancreas, adherent) | 0.987 | > 2.56 | 0.962 | > 10 | 0.94 | > 16 | 0.865 | 1.87 | 0.953 | > 10 | 0.976 | > 5 | 0.987 | > 5 | 0.982 | > 1.02 | 0.591 | 1.12 | 0.987 | > 20 | 0.903 | > 10.2 | 0.974 | > 20 | 0.493 | 0.0306 | – | – |
| RC-K8 (B-cell lymphoma, suspension) | 0.991 | > 2.56 | 0.962 | > 10 | 0.929 | > 16 | 0.99 | > 2 | 0.98 | > 10 | 0.98 | > 5 | 0.992 | > 5 | 0.993 | > 1.02 | 0.867 | 7.08 | 0.992 | > 20 | 0.927 | > 10.2 | 0.954 | > 20 | 0.654 | 0.0801 | 0.984 | > 2.5 |
| RCM-1 (large intestine, adherent) | 0.96 | > 2.56 | 0.857 | > 10 | 0.931 | > 16 | 0.885 | > 2 | 0.982 | > 10 | 0.9 | > 5 | 0.984 | > 5 | 0.982 | > 1.02 | 0.709 | 2.79 | 0.984 | > 20 | 0.97 | > 10.2 | 0.98 | > 20 | 0.649 | 0.091 | – | – |
| RERF-LC-KJ (lung adenocarcinoma, adherent) | 0.98 | > 2.56 | 0.971 | > 10 | 0.82 | 9.5 | 0.779 | 0.839 | 0.929 | > 10 | 0.941 | > 5 | 0.987 | > 5 | 0.982 | > 1.02 | 0.818 | 5.84 | 0.983 | > 20 | 0.893 | > 10.2 | 0.943 | > 20 | 0.582 | 0.0539 | – | – |
| RERF-LC-MS (lung adenocarcinoma, adherent) | 0.987 | > 2.56 | 0.923 | > 10 | 0.828 | 10.2 | 0.857 | 1.69 | 0.972 | > 10 | 0.887 | > 5 | 0.987 | > 5 | 0.985 | > 1.02 | 0.671 | 1.9 | 0.984 | > 20 | 0.957 | > 10.2 | 0.914 | > 20 | 0.195 | 0.00385 | – | – |

A lower IC50 marks a more sensitive line; fits outside the tested doses are given as limits. AUC is the area under the same curve over the 256-fold range up to the top dose, as a fraction; values near 1 show little effect. For some of these results: The top dose, if marked as inferred, was derived from the fitted curves, not read from the paper. For some of these results: Drugs with an entry number were screened twice under separate entries, and the two screens often disagree.
